For 88 compounds, survival results are on record in PubChem BioAssay AID463173 (ICCB-Longwood Screening Facility, Harvard Medical School, 2010).

SMILES strings stand for the structures. Hit rate of the full screen: of about 52,000 compounds, about 1,700 (3.3%) were called active. Cut-off read from the data, not from the text of the source: active = survival mostly below about 52% (no sharp cut-off); inactive = mostly above about 56%. Some of the results follow.

The subject of this experiment is Wild type. Kind of experiment: growth inhibition of S. aureus wild type versus tarO mutant, primary screen, teichoic acid synthesis inhibitors, RN4220, OD600 (AID 463173). As to conditions: S. aureus RN4220 wild type/DeltatarO growth, OD600, 18 h, hits give low values, screened at 18.75 µg/mL (by protocol).
On to `Cn1c(SCC(=O)N2CCCc3ccccc32)ncc(C(=O)Nc2ccc(F)cc2)c1=O`, for which the survival is inactive: 70%.

For the compound `CSc1nc(Nc2cccc(C)c2)c(C#N)c(-c2ccccc2)n1`, the survival is inactive: 104%.

Turning to `CNc1c(NC(=O)c2cc(OC)cc(OC)c2)c(=O)oc2ccccc12`, the survival is inactive: 87%.

For the compound `Cc1ccc(C(=O)CCNc2ccc(F)c(Cl)c2)o1`, the survival was inactive: 100%.

As for `Cc1cccc(CNC(=O)c2cccc(NC(=O)N3CCSc4ncccc43)c2)c1`, the survival was inactive: 51%.

As to `CCCCNC(=O)c1nn(-c2ccc(C)cc2)c(=O)c2c1c1ccccc1n2C`, the survival was inactive: 79%.

For the compound `CCC12CN3CC(C)(CN(C1)C3c1ccccc1C)C2=O` (stereo not drawn), the survival is inactive: 82%.

Consider `Cc1ccccc1-c1nc2cc(NC(=O)c3cccc(OCCC(C)C)c3)ccc2o1`, for which the survival is inactive: 61%.

In the case of `CCOc1ccc(-n2ccn3c(CC(C)CC(=O)O)nnc3c2=O)cc1` (stereo not drawn), the survival was inactive: 139%.

On to `CC(=O)OC(C(=O)NCc1ccc2c(c1)OCO2)c1ccccc1Cl` (stereo not drawn), for which the survival is inactive: 101%.

On to `COc1ccc2c(c1)c1c(c(=O)n(-c3ccc(C)cc3)c(=O)n1CC(=O)N1CCCC1)n2C`, for which the survival is inactive: 69%.

`COc1cc(NC(=O)c2ccc(-c3nc(COc4ccccc4)c(C)o3)cc2)cc(OC)c1`: the survival is inactive: 77%.

Regarding `O=C(c1ccco1)c1cn(CC(=O)N2CCc3ccccc32)c2ccccc12`, the survival was inactive: 85%.

Take `CCOC(=O)N1CCC(NC(=O)c2ccc3c(c2)N(Cc2ccccc2)C(=O)c2ccccc2S3=O)CC1` (stereo not drawn): the survival is inactive: 90%.

As for `CCCCN(Cc1ccccc1)S(=O)(=O)c1cc(Br)cc2c1N(C(=O)C1CC1)CC2`, the survival was inactive: 63%.

As to `CCCNC(=O)CCn1nc(-c2ccccc2)c2ccccc2c1=O`, the survival is inactive: 74%.

In the case of `O=C(CSc1nnc(CNC(=O)c2ccccc2F)n1-c1ccccc1)Nc1ccccc1F`, the survival is inactive: 66%.

In the case of `CC(=O)C1=C(c2ccc(Cl)c(Cl)c2)N(C(C)=O)n2c(nnc2C2CCCCC2)S1`, the survival is inactive: 73%.

Consider `O=C(CCc1nnc2n(Cc3ccccc3Cl)c(=O)c3ccccc3n12)Nc1ccc(F)cc1`, for which the survival was inactive: 82%.

Consider `CCOc1ccc(OCC)c(NC(=O)c2cc(CN3CCOCC3)on2)c1`, for which the survival was inactive: 72%.

Turning to `Cc1ccc(S(=O)(=O)c2cnc(SC(C)C(=O)Nc3ccccc3)[nH]c2=O)cc1` (stereo not drawn), the survival was inactive: 82%.

With `CCC(Cn1nnc2ccccc2c1=O)NC(=O)Nc1ccc(C)cc1` (stereo not drawn), the survival is inactive: 92%.

As for `Cc1ccc(NC(=O)CCNS(=O)(=O)c2ccc(Br)s2)cc1`, the survival is inactive: 83%.

Consider `CCOC(=O)C1CCCN(C(=O)c2cccc(NC(=O)c3nsc4ccccc34)c2)C1` (stereo not drawn), for which the survival is inactive: 99%.

In the case of `O=C(Nc1ccccc1Cl)c1cc(S(=O)(=O)N2CCC3(CC2)OCCO3)ccc1F`, the survival was inactive: 73%.

With `O=C(NCCS(=O)(=O)N1CCN(c2ccccc2F)CC1)C(c1ccccc1)c1ccccc1`, the survival is inactive: 74%.

As to `COc1cc(C2C(=O)N(C3CCCCCC3)CC(=O)N2CCC2=CCCCC2)ccc1OC(C)C` (stereo not drawn), the survival was inactive: 100%.

With `CCOc1ccc(N(CC)S(=O)(=O)N2CCCC(C(=O)Nc3ccc(OC)c(OC)c3)C2)cc1` (stereo not drawn), the survival was inactive: 110%.

Regarding `CCn1cc2nc(SCc3ccccc3Cl)n(CCc3ccccc3)c(=O)c2n1`, the survival was inactive: 91%.

With `CC(C)COC(=O)CNc1n[nH]c(=S)[nH]c1=O`, the survival was inactive: 119%.

Consider `Cc1ccc(-c2nc(NC(=O)CSc3ncnc4sc5c(c34)CCC(C)C5)ns2)cc1` (stereo not drawn), for which the survival was inactive: 75%.

For the compound `CCCN1C2CCCC1CC(NC(=O)c1cc(OC)c(OC)c(OC)c1)C2` (stereo not drawn), the survival was inactive: 104%.

Turning to `CCc1ccc(NS(=O)(=O)c2ccc3[nH]cc(C(=O)NCCc4cccc(C)c4)c(=O)c3c2)cc1`, the survival was inactive: 76%.

Take `COc1ccc(-n2cc(C(=O)OCc3ccc(F)c(F)c3)c3ccccc3c2=O)cc1`: the survival was inactive: 120%.

Regarding `CCOC(=O)Cc1nnc2c(Nc3cc(C)ccc3C)nc3nonc3n12`, the survival was inactive: 106%.

Take `O=C(NC1(C(F)(F)F)C(=O)Nc2c1c(=O)[nH]c(=O)n2-c1ccc(F)cc1)c1ccccc1` (stereo not drawn): the survival is inactive: 59%.

In the case of `COc1ccc(C2C(=O)N(C3CCCCC3)CC(=O)N2CCC2=CCCCC2)cc1` (stereo not drawn), the survival was inactive: 72%.

For `CCOc1ccc(-n2c(=O)c3sc4ccccc4c3n(Cc3cccc(C)c3)c2=O)cc1`, the survival was inactive: 130%.

For the compound `Cc1ccc(OC(=O)c2cc(-c3ccc(Cl)cc3)on2)c(C)c1`, the survival was inactive: 93%.

`Cc1cccc(N2CCN(C(=O)CCc3c(C)nc4c(c3C)c(=O)n(C)c(=O)n4C)CC2)c1C`: the survival is inactive: 83%.

As to `COC(=O)CN1C(=O)c2ccccc2NC1c1ccc(OC)cc1` (stereo not drawn), the survival is inactive: 102%.

With `CC1CCC(NC(=O)c2ccc3c(c2)N(Cc2ccccc2F)C(=O)c2ccccc2S3=O)CC1` (stereo not drawn), the survival is inactive: 96%.

Regarding `CC1(C)OC(=O)C(=C2CCCCCN2)C(=O)O1`, the survival is inactive: 83%.

For `CCOc1ccc(CCNC(=O)Cn2ncn3c(cc4sc(C)cc43)c2=O)cc1OCC`, the survival was inactive: 76%.

Regarding `Clc1ccc(-c2cn3ncsc3n2)cc1`, the survival is inactive: 78%.

Regarding `O=C(NCc1ccccc1)C(=O)NCC(c1ccc2c(c1)OCO2)N1CCOCC1` (stereo not drawn), the survival was inactive: 79%.

Turning to `COc1ccc2c(c1)sc1ncc(C(=O)NCc3ccc(Cl)cc3)c(=O)n12`, the survival is inactive: 73%.

`CCN1CCN(c2oc(/C=C/c3ccc(OC)c(OC)c3)nc2C#N)CC1`: the survival is inactive: 80%.

As for `Cc1ccc(CN2CCSc3ccc(C(=O)N4CCN(c5ccc(Cl)cc5)CC4)cc32)cc1`, the survival was inactive: 85%.

For `COc1cccc(CNC(=O)C(NS(=O)(=O)c2cccs2)C(C)C)c1` (stereo not drawn), the survival is inactive: 94%.

As for `COc1cccc(CNC(=O)c2ccc3nc(N4CCCCC4)sc3c2)c1OC`, the survival is inactive: 73%.

For the compound `Cc1ccc(C)c2[nH]c(=O)c(C3NC(=O)c4ccccc4N3)cc12` (stereo not drawn), the survival was inactive: 99%.

For `O=c1c2cccnc2n(Cc2ccccc2F)c(=O)n1Cc1ccc(F)cc1`, the survival is inactive: 95%.

On to `CCCCN1C(=O)c2[nH]nc(-c3ccccc3O)c2C1c1cc(Br)c(O)c(OC)c1` (stereo not drawn), for which the survival is active: 10%.

Consider `Cc1ccc(-n2c(C)cc(/C=C3\SC(=O)NC3=O)c2C)cc1`, for which the survival is inactive: 120%.

With `COc1ccc(NC(=O)Cn2c3ncccc3c(=O)n2-c2ccc(C)c(C)c2)c(OC)c1`, the survival was inactive: 136%.

As for `CCCCc1nn2c(=O)cc(COC(=O)c3ccc(NC(=O)c4ccccc4Cl)cc3)nc2s1`, the survival is inactive: 82%.

For `O=S(=O)(Nc1ccc2nc(-c3ccc(F)cc3)oc2c1)c1ccccc1`, the survival is inactive: 33%.

For the compound `CCOCCCNC(=O)C(c1ccc(OC)cc1)N(Cc1ccc2c(c1)OCO2)C(=O)c1ccc(NC(C)=O)cc1` (stereo not drawn), the survival was inactive: 69%.

`Cc1ccc2[nH]c(=O)c3cc(C(=O)N(C)c4ccc(Br)cc4)sc3c2c1`: the survival was inactive: 81%.

In the case of `Cc1nnc(NC(=O)CSc2nc3c([nH]c4ccccc43)c(=O)n2-c2ccc(Cl)cc2)s1`, the survival was inactive: 75%.

Turning to `Cc1cc(C)cc(NC(=O)c2cc(S(=O)(=O)NCCC3=CCCCC3)ccc2F)c1`, the survival was inactive: 80%.

For `Cc1ccc(NC(=O)c2cc(S(=O)(=O)N3CCCCC3)c[nH]2)cc1N(C)C`, the survival was inactive: 87%.

Take `CC(=O)Nc1cc(C(=O)NCc2ccccc2Cl)ccc1Sc1ccc(F)cc1`: the survival is inactive: 67%.

For `Cc1cccc(C(=O)Nc2ccc3oc(-c4cccc5c(Br)cccc45)nc3c2)c1`, the survival is inactive: 79%.

Take `CCc1ccc(NC(=O)C2CCN(c3nc(-c4ccc(OC)cc4)no3)CC2)cc1`: the survival is inactive: 66%.

Consider `Cn1c(=O)[nH]c(=O)c2c1nc(N1CCCC1)n2CCSc1ncccn1`, for which the survival is inactive: 113%.

On to `CCOc1ccc2nc(N3CCN(C(=O)c4ccc5c(c4)CCCC5)CC3)sc2c1`, for which the survival is inactive: 65%.

Turning to `COc1ccc2c(c1)CC(C(=O)NCc1ccc(F)cc1)CO2` (stereo not drawn), the survival was inactive: 45%.

`Cc1cc(OCC(=O)Nc2ccc(C(=O)OC3CCCCC3)cc2)cc(C)c1Cl`: the survival was inactive: 52%.

Regarding `COc1ccc(CCNCc2c(C(=O)O)c(C)n(Cc3c(F)cccc3Cl)c2C)cc1OC`, the survival is inactive: 116%.

For `Cc1ccc(-c2cc(-c3ccc4c(c3)NC(=O)CO4)nc3c2COc2ccccc2-3)cc1`, the survival is inactive: 95%.

In the case of `COc1ccccc1CN1CCN(C(CC(C)C)c2nnnn2Cc2ccc(F)cc2)CC1` (stereo not drawn), the survival was inactive: 107%.

Take `Cc1ccc2c(c1)C(=O)OC(C(=O)Nc1ncc(Cc3ccccc3Cl)s1)C2` (stereo not drawn): the survival is inactive: 86%.

Turning to `CCOc1ccc2c(c1)c(=O)c(C(=O)c1ccccc1)cn2Cc1ccccc1`, the survival was inactive: 75%.

For the compound `Cc1c(CCC(=O)NCCc2ccccc2)c(=O)oc2cc(O)ccc12`, the survival was inactive: 87%.

On to `Cc1ccc(C(=O)Nc2c(C(=O)NC(C)(C)C)oc3ccccc23)cc1`, for which the survival is active: 0%.

Consider `COc1ccc2c(c1)c1c(c(=O)n(-c3ccc(F)c(Cl)c3)c(=O)n1Cc1cccc(C)c1)n2C`, for which the survival is inactive: 71%.

As for `Cc1cc(C)c2c(CC(=O)Nc3ccc(F)cc3)coc2c1`, the survival was inactive: 94%.

`Cc1ccc(-n2nc(C)c3nc(CCC(=O)Nc4cccc(C)c4C)c(=O)n(C)c32)cc1`: the survival was inactive: 76%.

As to `CCCS(=O)(=O)c1nc(S(=O)(=O)c2ccc(C)cc2)c(N(CC)CC)s1`, the survival is inactive: 125%.

As for `CCOC(=O)c1ccc(NC(=O)CSc2c(C(C)C)cnc3c2c(=O)n(C)c(=O)n3C)cc1`, the survival was inactive: 136%.

Turning to `COc1ccc(CNC(=O)Cn2nc3c(cc2=O)CCCC3)cc1`, the survival is inactive: 64%.

Turning to `Cc1cccc(N2C(=O)N(Cc3cc(=O)n4ccccc4n3)c3ccccc3S2(=O)=O)c1`, the survival was inactive: 89%.

As for `CC(C)OC(=O)c1ccc2c(c1)no[n+]2[O-]`, the survival is inactive: 109%.

On to `CC(=O)Nc1ccc(NC(=O)c2oc3ccc4c(c3c2C)C(=O)CC(C)(C)O4)cc1`, for which the survival was inactive: 88%.

Consider `O=C(NCCc1ccccc1)c1ccc2c(c1)N(Cc1ccccc1F)C(=O)c1ccccc1S2=O` (stereo not drawn), for which the survival is inactive: 97%.

Consider `O=c1c(N2CCc3ccccc3C2)csc2ccccc12`, for which the survival is inactive: 74%.
